Screen size: about 55,000 compounds; about 530 (0.96%) were called active. Inconclusive results, whose numbers are uncertain, are shown with a selection of clear calls. Calls come from the whole dose curve; as a rule, active = well fitted cell-killing curve with a large enough effect; inconclusive = small, poorly fitted or top-dose-only effect; inactive = no such curve, though single readings can be large or run the other way. A potency beside an inconclusive call is a rough fit, not a confirmed value.
Assay: qHTS Screen for Compounds that Selectively Target Cancer Cells with p53 Mutations: Cytotoxicity of p53 Null Cells at the Nonpermissive Temperature; note: nearly all actives have a fitted effect of over 50% in size;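 for activity, negative = cell killing: 0% = DMSO only and -100% = full killing by 100 µM tamoxifen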
Conditions: H1299 p53-null (neo) cells, 39C, ATPlite viability, 24 h; activity, negative = cell killing: at 46.1 µM (top of the series)
Procedure, shortened: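 Following overnight plating at 37C (600 cells/well), H1299-neo or H1299-p53A138V cells are dosed up to 46 uM. Incubation lasts 24 hr at 39C before ATP detection.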
Potency is the fitted concentration of half-maximal effect; tags give direction and shape of the fitted curve.

| Compound | Potency | activity, negative = cell killing |
| --- | --- | --- |
| Cc1ccc(-n2ncc3c(NCCc4ccccc4)ncnc32)cc1 | inactive | – |
| CCN(c1ccccc1)S(=O)(=O)c1cc(C(=O)Nc2ccc(Br)cc2)ccc1F | inactive | – |
| CCN(CC)C(=O)Cn1c(SCC(=O)Nc2ccc(C)c(C)c2)nc2ccccc21 | inconclusive: 12.6 µM [cytotoxic, single point] | – |
| COc1ccc2c(C)cc(SCC(=O)Nc3nsc(-c4ccc(C(C)(C)C)cc4)n3)nc2c1 | inconclusive: 1.58 µM [cytotoxic, full curve, poor fit] | – |
| COc1cccc(Cn2c(SCc3ccc(C(=O)N4CCC(C)CC4)cc3)nc3ccncc32)c1 | inconclusive: 11.2 µM [cytotoxic, single point] | – |
| COc1ccc(C2CC(=O)c3cc(-c4nc(-c5ccc(Cl)cc5)cs4)c(=O)[nH]c3C2)cc1 (configuration not stated) | inactive | – |
| COc1cc(NC(=O)c2cc(-c3ccccc3O)no2)cc(OC)c1OC | – | inconclusive: -30.8% [cytotoxic] |
| CCOCN(C(=O)Cn1c(C(C)O)nc2ccccc21)c1c(C)cccc1CC (configuration not stated) | inactive | – |
| CCc1ccc(-n2c(=O)c3cccnc3n2CC(=O)NCc2ccc(F)cc2)cc1 | inconclusive: 7.94 µM [cytotoxic, partial curve] | – |
| CN(c1cccc(NC(=O)COc2ccc(Cl)cc2Cl)c1)S(C)(=O)=O | inconclusive: 35.5 µM [cytotoxic, single point] | – |
| COc1ccc(C(=O)NCC(c2cccnc2)N2CCN(c3ccc(F)cc3)CC2)cc1 (configuration not stated) | – | inconclusive: -104% [cytotoxic] |
| COc1ccc(F)cc1S(=O)(=O)NCCc1csc(-c2ccc(Cl)cc2)n1 | active: 20 µM | – |
| COc1ccccc1N1CCN(c2ccc3cc(S(=O)(=O)N4CCCCC4)ccc3n2)CC1 | inconclusive: 5.62 µM [cytotoxic, single point] | – |
| CCC(CC)C(=O)Nc1c(C(=O)N2CCN(c3ccccc3F)CC2)oc2ccccc12 | inconclusive: 35.5 µM [cytotoxic, single point] | – |
| O=S1(=O)c2ccccc2N(Cc2ccc(Cl)cc2F)c2ccccc21 | inconclusive: 22.4 µM [cytotoxic, single point] | – |
| CCOC(=O)c1ccc(N2C(=O)c3n[nH]c(-c4ccco4)c3C2c2ccc(F)cc2)cc1 (configuration not stated) | inconclusive: 31.6 µM [cytotoxic, single point] | – |
| Cc1ccccc1CSc1nc2cccnc2n1Cc1ccc(C(=O)NC2CC2)cc1 | inconclusive: 11.2 µM [cytotoxic, partial curve] | – |
| CC(=O)Nc1ccc(-c2nnc(SCC(=O)c3ccc([N+](=O)[O-])cc3)o2)cc1 | inactive | – |
| O=C(c1cc(C2CC2)nc2ccccc12)N1N=C(C(F)F)CC1(O)C(F)F (configuration not stated) | inconclusive: 35.5 µM [cytotoxic, single point] | – |
| Cc1cccc(C(=O)Nc2nc(-c3nnn(-c4cc(F)ccc4F)c3C)ns2)c1 | inconclusive: 10 µM [cytotoxic, partial curve, poor fit] | – |
| CCOc1ccc(C2C(C(=O)Nc3ccc(Cl)cc3)=C(C)Nc3nc(C(F)(F)F)nn32)cc1 (configuration not stated) | inconclusive: 20 µM [cytotoxic, single point] | – |
| Oc1ccc(NCc2ccc(OCc3ccccc3Cl)cc2)cc1 | inconclusive: 12.6 µM [cytotoxic, partial curve] | – |
| O=C(Cn1ncc2c(Cl)cccc21)NCc1cccc(Br)c1 | inconclusive: 15.8 µM [cytotoxic, partial curve] | – |

| Compound | Potency | activity, negative = cell killing |
| --- | --- | --- |
| Cc1ccc(-c2cc(C(=O)N3CCN(c4ccccc4)CC3)c3ccccc3n2)cc1C | inconclusive: 6.31 µM [cytotoxic, partial curve] | – |
| O=S(=O)(c1ccccc1)c1nc(-c2ccc(F)cc2)oc1N1CCCCCC1 | inactive | – |
| CCCCN1C(=O)C(O)(c2c(C)[nH]c3ccccc23)c2ccccc21 (configuration not stated) | inactive | – |
| Cc1ccc(CNC(=O)C(=O)NCC(c2cccnc2)N2CCN(c3ccccc3F)CC2)cc1 (configuration not stated) | inconclusive: 22.4 µM [cytotoxic, single point] | – |
| Cc1ccc(-n2nnc(-c3nsc(NC(=O)c4ccc(C)c(C)c4)n3)c2C)cc1 | inactive | – |
| Nc1c(C(=O)Nc2ccc(Br)cc2)sc2nc(-c3ccncc3)ccc12 | inactive | – |
| CCOc1ccc(NC(=O)NCCN2CCN(c3ccccc3F)CC2)cc1 | inconclusive: 0.199 µM [cytotoxic, full curve, poor fit] | – |
| O=C(Nc1ccccc1C(F)(F)F)c1cc2ccccn2n1 | active: 10 µM | – |
| CC(=O)c1c(C)oc2ccc(N(C(=O)c3ccncc3)S(=O)(=O)c3ccc(C)cc3C)cc12 | inactive | – |
| O=C(c1cn(CCOc2ccc(Cl)cc2)c2ccccc12)C1CCCCC1 | inconclusive: 0.794 µM [cytotoxic, full curve, poor fit] | – |
| O=[N+]([O-])c1cc(-c2nc(-c3ccncc3)no2)ccc1NCc1ccccc1 | inactive | – |
| O=C(Nc1ccc2oc(-c3cccc(Cl)c3Cl)nc2c1)c1cccc(Br)c1 | inconclusive: 15.8 µM [cytotoxic, single point] | – |
| O=[N+]([O-])c1ccc(O)c(/C=N/Nc2ccccn2)c1 | inconclusive: 2.82 µM [cytotoxic, single point] | – |
| Cc1ccc(C(C)C)c(OCC(=O)Nc2cccc(-c3nc4ncccc4o3)c2)c1 | inconclusive: 12.6 µM [cytotoxic, single point] | – |
| O=c1[nH]c2ccc(NCc3ccc(-c4ccccc4F)o3)cc2[nH]1 | inconclusive: 31.6 µM [cytotoxic, single point] | – |
| COc1ccc(C2C=C(c3ccccc3)Nc3nc(NS(=O)(=O)c4ccc(C)cc4)nn32)cc1 (configuration not stated) | inactive | – |
| Cc1ccc(C)c(-c2ccc(=O)n(Cc3ccc(F)cc3Cl)n2)c1 | inconclusive: 20 µM [cytotoxic, single point] | – |
| COc1ccc(OCCn2cc(C(=O)c3ccco3)c3ccccc32)cc1 | inconclusive: 3.16 µM [cytotoxic, partial curve, poor fit] | – |
| CCc1ccc(NC(=O)Cn2c(=O)n(Cc3ccc4c(c3)OCO4)c(=O)c3oc4ccccc4c32)cc1 | inconclusive: 1.26 µM [cytotoxic, full curve, poor fit] | – |
| CCN(CC)CCn1c(=N)n(CCOc2ccccc2Cl)c2ccccc21 | active: 3.16 µM | – |
| COC(=O)CSc1nnc(SCc2ccc(OC)cc2)s1 | inconclusive: 5.62 µM [cytotoxic, single point] | – |
| CCCN1CCN(CCCNC(=O)c2ccc3c(c2)sc2nc(-c4ccc(OCC)cc4)cn23)CC1 | active: 25.1 µM | – |
| Cc1ccc(-c2nnn(CC(=O)NCCC3=CCCCC3)n2)cc1 | inconclusive: 50.1 µM [cytotoxic, partial curve, poor fit] | – |

| Compound | Potency | activity, negative = cell killing |
| --- | --- | --- |
| CC1=C(C(N)=O)C(c2ccccc2F)n2nc(-c3ccc(Cl)cc3)nc2N1 (configuration not stated) | inconclusive: 31.6 µM [cytotoxic, single point] | – |
| COc1cccc(C(=O)Nc2ccc3nc4n(c(=O)c3c2)CCCCC4)c1 | inconclusive: 12.6 µM [cytotoxic, partial curve] | – |
| O=C(CN1CCN(Cc2ccc(F)cc2Cl)C1=O)NCCc1ccc(Cl)cc1 | inactive | – |
| Cc1c(CN(C)C(=O)c2cc(-c3ccccc3)nc3ccc(Br)cc23)cnn1C | inconclusive: 0.158 µM [cytotoxic, full curve] | – |
| Cc1csc2nc(-c3cccc(NS(C)(=O)=O)c3)cn12 | inconclusive: 15.8 µM [cytotoxic, single point] | – |
| CC1CCN(S(=O)(=O)c2cc(C(=O)NCc3ccc(N(C)C)cc3)n(C)c2)CC1 | inactive | – |
| Cc1cccc(NC(=O)Cn2c(=O)oc3cc(S(=O)(=O)NCc4ccccc4)ccc32)c1 | inactive | – |
| CC(=O)c1cccc(NC(=O)c2nc(-c3ccc(C)cc3)n3c2CCCCC3)c1 | inconclusive: 0.501 µM [cytotoxic, full curve] | – |
| Cc1ccc(NC(=O)C(=O)NCc2ccc(Cl)cc2)cc1 | inconclusive: 0.0316 µM [cytotoxic, full curve, poor fit] | – |
| Cc1ccc(S(=O)(=O)Nc2cccc(-c3ccc(N4CCCCC4)nn3)c2)s1 | active: 12.6 µM | – |
| Cc1cccc(NCc2nc3ccccc3n2CCOc2ccccc2C)c1 | inconclusive: 35.5 µM [cytotoxic, single point] | – |
| CCc1nnc2c(Nc3cccc(C(C)=O)c3)nc3ccccc3n12 | inactive | – |
| CCOc1ccc(CNC(=O)C2CCN(S(=O)(=O)c3ccc4c(ccn4C)c3)CC2)cc1 | inconclusive: 0.316 µM [cytotoxic, full curve, poor fit] | – |
| CCOC(=O)c1ccccc1NC(=O)c1ccc2c(Cl)c3c(nc2c1)CCC3 | inconclusive: 12.6 µM [cytotoxic, partial curve] | – |
| O=C(COc1ccccc1)Nc1ccc2nc(SCC(=O)N3CCc4ccccc43)sc2c1 | inactive | – |
| CCOc1ccc(C(=O)Nc2onc3c2CCCC3)cc1 | active: 3.98 µM | – |
| CCOc1ccc(Nc2ncnc3c2nc2n3CCCCC2)cc1 | inactive | – |
| O=c1[nH]c(C2CCCN(S(=O)(=O)c3ccccc3Cl)C2)nc2c1nnn2Cc1ccc(OC(F)(F)F)cc1 (configuration not stated) | inconclusive: 31.6 µM [cytotoxic, single point] | – |
| CC(=O)c1cccc(-n2c(=O)c3c4c(sc3n(CC(=O)c3ccc(Cl)cc3)c2=O)CN(C(C)=O)CC4)c1 | – | inconclusive: -30.4% [cytotoxic] |
| CC1CCCCN1C(=O)CSc1n[nH]c(-c2ccccc2)n1 (configuration not stated) | inconclusive: 0.005 µM [cytotoxic, full curve, poor fit] | – |
| Cc1ccc(NC(=O)Cn2c(=O)oc3cc(S(=O)(=O)N4CCC(C)CC4)ccc32)cc1Cl | – | inconclusive: -31.2% [cytotoxic] |

Source: PubChem BioAssay AID904 (National Center for Advancing Translational Sciences (NCATS), 2007)
